# From patent US20230322822A1, “ARYL PHOSPHOROUS OXIDE COMPOUNDS AND USE THEREOF” (Chengdu Di'ao Jiuhong Pharmaceutical Factory, priority 2020, published 2023)
# How the values were obtained:
# [1] = tested on: Ba/F3 cells expressing EGFR-T790M/Del19; test: Cell anti-proliferation test 1 (CTG), BaF3 EGFR-T790M/Del19; conditions: Mus musculus, BaF3, 72 h, read-out: EGFR-T790M/Del19 IC50
# [2] = tested on: Ba/F3 cells expressing EGFR-WT; test: Cell anti-proliferation test 1 (CTG), BaF3 EGFR-WT; conditions: Mus musculus, BaF3, 72 h, read-out: EGFR-WT IC50
# [3] = tested on: Ba/F3 cells expressing EGFR-C797S/T790M/L858R; test: Cell anti-proliferation test 1 (CTG), BaF3 EGFR-C797S/T790M/L858R; conditions: Mus musculus, BaF3, 72 h, read-out: EGFR-C797S/T790M/L858R IC50
# [4] = tested on: Ba/F3 cells expressing EGFR-C797S/T790M/Del19; test: Cell anti-proliferation test 1 (CTG), BaF3 EGFR-C797S/T790M/Del19; conditions: Mus musculus, BaF3, 72 h, read-out: EGFR-C797S/T790M/Del19 IC50
SMILES,IC50 [1] [nM],IC50 [2] [nM],IC50 [3] [nM],IC50 [4] [nM]
C=CC(=O)Nc1cc(Nc2ncc(Cl)c(Nc3ccc(C)cc3P(C)(C)=O)n2)c(OC)cc1N1CCC(N2CCN(C)CC2)CC1 [Compound 25],34.2,,,
COc1cc(N2CCC(N3CCN(C)CC3)CC2)c(C)cc1Nc1ncc(C)c(Nc2ccc(C)cc2P(C)(C)=O)n1 [Compound 4],43.8,815,204,50.5
COc1cc(N2CCC(N3CCN(C)CC3)CC2)c(C(C)C)cc1Nc1ncc(Br)c(Nc2ccc(C)cc2P(C)(C)=O)n1 [Compound 13],29,691,168,36.4
Cc1ccc(Nc2nc(Nc3cc(C)c(N4CCC(N5CCN(C)CC5)CC4)cc3OCC(F)(F)F)ncc2Br)c(P(C)(C)=O)c1 [Compound 23],54.3,1610,129,34.1
COc1cc(N2CCOCC2)c(C)cc1Nc1ncc(Br)c(Nc2ccc(C)cc2P(C)(C)=O)n1 [Compound 28],50.6,1210,134,35.5

# Now from value to compound:
IC50 [1] [nM],IC50 [2] [nM],IC50 [3] [nM],IC50 [4] [nM],SMILES
29.5,1650,62.9,25.8,COc1cc(N2CCC(N3CCOCC3)CC2)c(C)cc1Nc1ncc(Br)c(Nc2ccc(C)cc2P(C)(C)=O)n1 [Compound 30]
26.3,,,,COc1cc(N2CCC(N3CCN(C)CC3)CC2)c(Cl)cc1Nc1ncc(Br)c(Nc2ccc(Cl)cc2P(C)(C)=O)n1 [Compound 38]
